Results: publication PMC10668032
The list shows a part of the results. At the low end of the ranking the order means little.

target: SIX1-Q177R homeodomain (UniProt Q15475); assay: universal protein binding microarray; conditions: Universal all-10-mer PBM (8x60K, AMADID 030236), 300 nM GST-tagged protein, Alexa Fluor 488 anti-GST; buffer, salt, pH and temperature not stated; high values mean tight binding; most listed sequences are background and not binding sites; double strand, one strand shown

Sequence	binding signal [E-score]
CCGTCCTC	-0.014
ATATGTAG	-0.172
CTTTTCGC	0.0525
CCCAAGCG	0.0425
TGAGCTAA	-0.0211
GTCCGCGA	-0.1
CGCAATCC	-0.0666
AGAACCTA	-0.0418
CCCCTTAC	0.245
ATTCGCTG	-0.306
CAGAGAAC	-0.0777
GCATATAC	0.106
CGCCCAAC	0.0847
GCTCTGTA	-0.125
AGCTCATC	-0.153
CTACTTGA	-0.0567
GGGACTAA	-0.128
CATACTGC	-0.216
AACGGTTC	-0.242
ATTCCTGG	-0.138
GATTCATA	-0.179
CCATAGTC	-0.233
ATCAATAC	-0.0568
AGCCTTGA	-0.104
TACAGACA	-0.0477

Sequence	binding signal [E-score]
ACCTGTGG	0.01
ATGGGCGC	-0.138
ACAGAATG	-0.165
GTCGGGGA	0.084
AGGTCAAG	-0.0848
GCCCGCCA	-0.0192
GAAGATGA	-0.253
TCCTAAGA	-0.188
GGGCAGCA	-0.0895
ACGGTGAT	0.0788
CACCCCTC	0.393
AGAAACCA	-0.109
CGGATTTA	0.102
CGCTCACC	-0.091
CGAACGGA	0.21
CAAAGAGC	-0.15
AGCGTAAG	-0.182
ATGCCATG	-0.267
AACGAAAG	-0.0673
AAGTTAAT	-0.158
GTGGGTCA	0.166
GGGGAACC	0.113
GCCTCGCA	-0.152
AACAAAGT	-0.0538
GGTAGTCA	-0.0119

Sequence	binding signal [E-score]
CTGTATCC	0.0762
GATTATAA	-0.14
CACCCCGG	0.338
AATTGTCC	-0.226
CCGTCCCG	-0.225
CCAAGGGA	-0.0974
TGGATCCA	-0.0177
AGAGCCAT	-0.142
CGGTGGAA	-0.0693
AGGCGAAC	-0.00716
GACTTATC	-0.233
AAGCGTAT	-0.172
CGTTCGAA	-0.0607
AGTAACGA	-0.14
CGCAATGC	-0.00698
CAGGGCGC	-0.0746
GGTCAAAA	0.0649
GCTTCTAA	-0.153
CCGGTTGA	0.0296
TAGGCGGA	-0.0265
CCAAATAA	-0.035
GAGATCCC	0.143
CGCACTGC	-0.0649
GCAATACC	0.166
CGCGGGAA	-0.0378

Sequence	binding signal [E-score]
GCACTCGA	0.0224
CCGCATCA	0.0678
ATTCGGGA	-0.0598
CCCGGGAC	0.106
AGCCACTA	-0.231
GTCTAACA	0.204
CACCCCAG	0.36
TATTAAAA	0.00166
CGTTGCAC	0.0413
GAGGGCTA	-0.0107
ACAACGTA	-0.0795
CATGACCG	-0.0178
AGTTTCAC	-0.0336
CACCGTAG	0.255
GACAGTGA	-0.0177
AGACTCAA	0.0888
CGGAGAAC	0.00618
ATATTGTG	0.0273
ACGTGATA	0.0673
CGTGGCCC	-0.122
GAGAGGTA	0.114
ATGTGGGC	-0.187
GCTATCAC	-0.0277
CTGCTGGA	-0.212
AAAAAAAA	-0.0314

Sequence	binding signal [E-score]
GCACCACA	0.154
ACCGGAAA	0.0805
ATACCAAC	0.163
ACCGGTGA	0.0601
CCGTTAAC	-0.068
AAGGACTA	-0.229
ACGTTGAC	0.0452
CAAATAAC	-0.0463
AGGTCATC	-0.04
ACCTCTTA	0.0413
AATACGCA	-0.138
CCTGGCTA	-0.139
TCACGCAA	-0.188
ACCATCGT	-0.133
GTAAAAAC	-0.0026
ATCATGCA	-0.0868
GTTTTACA	0.0695
AGGGTCAA	0.0776
AGCTGAAC	-0.0318
AAACAAGG	-0.018
TCGTTGAA	-0.212
CGCCTGCC	-0.19
ATTTAGCG	-0.136
CCCATACG	-0.0284
AATTTTGC	-0.135

Sequence	binding signal [E-score]
ATATAAGC	-0.0874
CCCTCACC	0.101
AAGATCTT	-0.291
CGTCGCCA	-0.201
GCGCGCCC	-0.0549
TTAACAAA	-0.222
GCGCCGAA	-0.205
AGCGATAC	0.14
GCTAGCAA	-0.0876
AAAAAGTC	-0.0776
GGTAATAA	0.0416
AGCGTACA	0.0474
TAGGTATA	-0.0208
AAGAAGTC	-0.082
CGACGCGA	0.151
AAAATCCA	0.0691
ATACGCCC	0.092
ACTTATTC	-0.052
GCCAACTA	-0.00775
CTGTTCTC	-0.251
CCGTGCGA	0.155
CAGGTACA	0.187
ATATGTAC	-0.0592
TGGCTGAA	-0.112
CACGCGAG	0.27

Sequence	binding signal [E-score]
CAGCTCTA	-0.187
CGGCGGCC	-0.293
AGCGAATG	-0.134
AACTCTGA	-0.0863
CATTCACA	0.0603
ATCTTAGC	-0.164
ACCCTCGA	0.155
CGAAGGCC	-0.263
CACTTCTA	0.209
CTGACTCC	0.233
CGCAGCCC	-0.0789
CGAGTTGC	0.051
ACTGGCTA	-0.155
ACAGAGCA	0.0318
ACTAACAC	0.427
CCTGTACG	-0.113
TAAATAAA	-0.0663
AGCTAACT	-0.147
GCTTTTAA	-0.277
ATCATGCG	0.0136
GCACACCC	0.396
AATGTCGC	0.011
